# Test results published in PubChem BioAssay AID1768 (National Center for Advancing Translational Sciences (NCATS), 2009).
# Values joined by “and” are separate entries in the source; they are usually repeats but may differ in a detail not shown here. Equal values may be shown once. Screen size: about 270,000 compounds; about 620 (0.23%) were called active. Inconclusive results, whose numbers are uncertain, are shown with a selection of clear calls. Calls come from the whole dose curve; as a rule, active = well fitted inhibition curve with a large enough effect in the polarisation, with a control signal flat (not every such curve was filed as active); inconclusive = small, poorly fitted or top-dose-only effect, or effect the other way, or a change in a side signal; inactive = no such curve, though single readings can be large or run the other way; the % refers to the polarisation. Potencies of inconclusive entries are doubtful fits and often do not repeat. A note “side channel” means that the fit belongs to a control or component signal, not to the main read-out.
# Target: Menin (Homo sapiens) (UniProt O00255)
# Sequence of UniProt O00255 (O00255 whole entry, looked up): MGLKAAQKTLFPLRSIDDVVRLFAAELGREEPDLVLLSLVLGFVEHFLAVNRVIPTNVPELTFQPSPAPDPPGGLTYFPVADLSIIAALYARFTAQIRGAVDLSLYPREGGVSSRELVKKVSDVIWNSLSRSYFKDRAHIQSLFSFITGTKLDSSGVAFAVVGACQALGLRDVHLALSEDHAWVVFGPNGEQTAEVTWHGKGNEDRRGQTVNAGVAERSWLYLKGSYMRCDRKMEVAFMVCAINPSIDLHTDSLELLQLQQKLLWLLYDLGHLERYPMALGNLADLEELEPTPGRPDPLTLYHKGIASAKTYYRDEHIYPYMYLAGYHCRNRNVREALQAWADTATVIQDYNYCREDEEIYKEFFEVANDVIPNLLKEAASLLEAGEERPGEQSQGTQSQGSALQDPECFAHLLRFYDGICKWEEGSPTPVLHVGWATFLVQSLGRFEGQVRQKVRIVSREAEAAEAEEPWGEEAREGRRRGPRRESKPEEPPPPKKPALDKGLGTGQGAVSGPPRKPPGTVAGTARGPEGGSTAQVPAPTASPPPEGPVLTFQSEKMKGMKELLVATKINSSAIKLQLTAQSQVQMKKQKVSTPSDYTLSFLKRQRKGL
# Assay: qHTS Assay for Inhibitors Targeting the Menin-MLL Interaction in MLL Related Leukemias: Competition With Texas Red Labeled MLL-derived Mutant Peptide; for FP activity change, negative = inhibition: % of control where 0% means no effect
# Conditions: fluorescence polarization; FP activity change, negative = inhibition: at 61.6 µM (top of the series)
# Potency is the fitted concentration of half-maximal effect; tags give direction and shape of the fitted curve or compound fluorescence and quenching.
Compound,Potency,"FP activity change, negative = inhibition"
O=C(O)COc1ccccc1/C=N/NC(=O)c1cc(-c2ccc(F)cc2)nc2ccccc12,"inconclusive: 12.6 µM [quencher, partial curve]",–
CCOc1ccc(-c2nnc3ccc(SC(C)C)nn23)cc1,"inconclusive: 15.8 µM [fluorescent, side channel, partial curve]",–
CNS(=O)(=O)c1cc2c3c(cccc3c1)C(=O)NC2=O,"inconclusive: 12.6 µM [inhibitor, partial curve, poor fit]",–
COC(=O)C1CN(C(=O)COc2cc(C)c(Cl)c(C)c2)c2ccccc2O1 (configuration not stated),"inconclusive: 31.6 µM [inhibitor, partial curve]",–
Cc1cccc(NC(=S)NCc2ccc3c(c2)cc(C)n3C)c1C,inactive,–
CN(C)c1ccc(/C=N/NC(=O)c2nnn(-c3nonc3N)c2CN(C)c2ccccc2)cc1,"inconclusive: 10 µM [quencher, side channel, partial curve]",–
CCn1c(=O)c2ccccc2n(Cc2cccc(C)c2)c1=O,inactive,–
Cc1c(CCC(=O)NCCCCCC(=O)O)c(=O)oc2cc3occ(-c4ccccc4)c3cc12,"inconclusive: 35.5 µM [inhibitor, partial curve]",–
CCc1nnc(NC(=O)CSc2nc(C)cs2)s1,"inconclusive: 44.7 µM [inhibitor, partial curve, poor fit]",–
COc1ccc2c(CC(=O)Nc3ncc(C)s3)coc2c1,"inconclusive: 28.2 µM [quencher, side channel, single point]",–
COc1cc(-c2nc(CN3CCN(CC(C)C)C(=O)[C@@H]3C)c(C)o2)ccc1F,"inconclusive: 14.1 µM [fluorescent, side channel, partial curve]",–
CCc1nnc(NC(=O)CSc2nc(-c3ccccc3)cc(-c3ccc(OC)cc3)c2C#N)s1,inactive,–
CCOc1ccccc1N1CCN(S(=O)(=O)c2ccc3c4c(cccc24)C(=O)N3)CC1,"inconclusive: 25.1 µM [quencher, side channel, partial curve]",–
CC(=O)c1c(C)[nH]c(C(=O)CSc2nc3ccccc3n2C)c1C,"inconclusive: 39.8 µM [inhibitor, single point]",–
O=c1oc2ccc(NS(=O)(=O)c3cccc4cccnc34)cc2s1,inactive,–
N#CC1=C(N)NC(SCc2ccccc2)=C(C#N)C12CCCCC2,"inconclusive: 14.1 µM [quencher, side channel, partial curve]",–
COC(=O)C/C=C/C(C)C(OCc1cccc(Br)c1)C(C)C(OC)C1CCCCC1 (configuration not stated),–,inactive: -7.95% [at 11.7 µM]
COc1ccc(C2=NN(c3ccccc3)C(=O)/C2=C\c2ccc(O)c(OC)c2)cc1,"inconclusive: 15.8 µM [quencher, side channel, partial curve]",–
Cc1ccn2c(-c3csc(NCc4ccccc4)n3)c(C)nc2c1,"inconclusive: 39.8 µM [inhibitor, single point]",–

Compound,Potency,"FP activity change, negative = inhibition"
NCC(=O)Nc1ccc(Cl)cc1C(=O)c1ccc[nH]1,inactive,–
Cc1ccc(C(=O)OCC(=O)Nc2sc3c(c2C#N)CCCC3)cc1NC(=O)c1ccco1,"inconclusive: 35.5 µM [quencher, side channel, single point]",–
O=c1c(O)c(-c2ccc(O)cc2)oc2cc(O)cc(O)c12,"inconclusive: 14.1 µM [quencher, side channel, partial curve] and inconclusive: 35.5 µM [quencher, side channel, partial curve]",–
O=C(NC(=S)NNC(=O)c1ccccc1O)c1cccc([N+](=O)[O-])c1,"inconclusive: 35.5 µM [quencher, side channel, single point]",–
COC(=O)c1cc(S(=O)(=O)N(C)C2CCCCC2)c[nH]1,inactive,–
COc1cc2nc(N3CCN(C(=O)C4COc5ccccc5O4)CC3)nc(N)c2cc1OC (configuration not stated),"inconclusive: 31.6 µM [quencher, side channel, single point]",–
CC(C)n1c(NCc2cc(Cl)ccc2O)nc2ccccc21,"inconclusive: 15.8 µM [quencher, side channel, partial curve]",–
O=C(NC(=S)NNC(=O)c1ccccc1O)c1ccccc1,"inconclusive: 31.6 µM [quencher, side channel, single point]",–
COc1ccc(C2=NS(=O)(=O)N(C)C(C(=O)Nc3ccc4c(c3)OCO4)=C2)cc1OC,"inconclusive: 11.2 µM [quencher, side channel, partial curve]",–
O=C(/C=C/c1ccccc1)NCCSCc1ccc(Cl)cc1,"inconclusive: 39.8 µM [inhibitor, single point]",–
O=C1N(c2ccccc2)CCN1c1ccccc1,"inconclusive: 35.5 µM [inhibitor, single point]",–
N#CC(C#N)=Cc1cc2ccccc2nc1N1CCCCC1,"inconclusive: 39.8 µM [fluorescent, side channel, single point]",–
COc1ccc(C(=O)Oc2ccc(F)cc2C(=O)/C=C/c2ccc(OC)c(OC)c2)cc1,"inconclusive: 31.6 µM [fluorescent, side channel, single point]",–
COC(=O)c1cc(NC(=S)Nc2cc(Cl)cc(Cl)c2)cc(C(=O)OC)c1,"inconclusive: 12.6 µM [quencher, side channel, partial curve]",–
C[C@@H]1C(=O)O[C@H]2C[C@@]34[C@H]5C[C@@H](C(C)(C)C)[C@]36[C@H](OC(=O)[C@H]6O)O[C@]4(C(=O)O5)[C@]21O,inactive,–
N#C/C(=C(/N)Sc1ccc(N)cc1)c1ccccc1C(F)(F)F,"inconclusive: 28.2 µM [quencher, side channel, single point]",–
O=C(Nc1sc2c(c1C(=O)O)CCC2)c1ccccc1F,"inconclusive: 22.4 µM [quencher, side channel, partial curve]",–
CCOC(=O)c1sc(NC(=O)CSc2nnc(Cc3ccccc3)o2)c(C#N)c1C,"inconclusive: 28.2 µM [quencher, side channel, single point]",–
Cc1ccc(C(=O)NC(=S)Nc2cccc(NC(=O)c3ccccc3)c2)cc1[N+](=O)[O-],"inconclusive: 10 µM [quencher, side channel, partial curve]",–

Compound,Potency,"FP activity change, negative = inhibition"
COc1cc(OC)c(NC(=O)Nc2cc(C)on2)cc1Cl,"inconclusive: 35.5 µM [inhibitor, single point]",–
C=C[C@@](C)(O)CC[C@@H]1[C@@]2(C)CCCC(C)(C)[C@@H]2CC[C@@]1(C)O,"inconclusive: 39.8 µM [fluorescent, side channel, partial curve, poor fit] and inconclusive: 22.4 µM [fluorescent, side channel, partial curve, poor fit]",–
CCOC(=O)/C(C#N)=C/c1ccc(OCC(=O)Nc2ccccc2)c(OC)c1,"inconclusive: 35.5 µM [inhibitor, single point]",–
Cc1c(Cl)cccc1N=Cc1ccc([N+](=O)[O-])s1,"inconclusive: 14.1 µM [quencher, side channel, partial curve]",–
O=C(CCBr)N1CCN(C(=O)CCBr)CC1,"inconclusive: 10 µM [inhibitor, partial curve]",–
COc1ccc(/C=N/Nc2nc(Nc3ccccc3)nc(N3CCCC3)n2)cc1[N+](=O)[O-],"inconclusive: 8.91 µM [quencher, side channel, full curve, poor fit]",–
CC1CC(C)CN(S(=O)(=O)N2CCCC(C(=O)NCCc3ccc(Cl)cc3)C2)C1 (configuration not stated),"inconclusive: 12.6 µM [fluorescent, side channel, partial curve]",–
Cc1ccsc1C(=O)Nc1ccc(OCc2ccccc2)cc1,"inconclusive: 25.1 µM [fluorescent, side channel, single point]",–
N#C/C(=N\Nc1ccc(S(=O)(=O)N2CCc3ccccc32)cc1)C(N)=S,"inconclusive: 10 µM [quencher, side channel, partial curve]",–
Cc1ccccc1OCC(=O)NNC(=O)c1ccc(-c2ccccc2)cc1,"inconclusive: 39.8 µM [inhibitor, single point]",–
CC(=O)c1c(OCC(=O)O)ccc2c(C)cc(=O)oc12,inactive,–
COc1ccc(CN(C2CCCC2)S(=O)(=O)c2ccc(-n3cnnn3)cc2)cc1,"inconclusive: 8.91 µM [quencher, side channel, full curve]",–
O=C(COC(=O)c1ccc2[nH]c3c(c2c1)CCCC3)Nc1ccccc1,"inconclusive: 25.1 µM [quencher, side channel, partial curve]",–
CCc1nc2ccccc2c(C(=O)OCc2nnc(-c3ccccc3)o2)c1C,"inconclusive: 10 µM [fluorescent, side channel, partial curve]",–
Cc1nc(NC(=O)c2ccco2)sc1-c1csc(Nc2ccc(Cl)cc2)n1,"inconclusive: 6.31 µM [quencher, side channel, partial curve]",–
CCN(CC)S(=O)(=O)c1ccc(C(=O)Nc2nnc(-c3ccco3)o2)cc1,"inconclusive: 3.16 µM [quencher, side channel, partial curve]",–
CO[C@H]1COC(=O)[C@H]2CCCN2C(=O)[C@@H](C)COC(=O)C/C=C\[C@@H]1C,–,inactive: -1.67% [at 11.7 µM]
Cc1nc2cc(C)c(C)cc2s1,inactive,–
O=[N+]([O-])c1ccc(OCCN2CCNCC2)cc1,inactive,–
